{"source": "PubChem BioAssay AID488969", "about": "(Vanderbilt High Throughput Screening Facility, 2010)", "note": "The full ranking holds about 110,000 compounds; the median of “z-score” is about -0.1, and the highest 2% start at about 2. The list shows a part of the results. The source made the active and inactive calls.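 Rule for the calls: active = z-score in the third read window above 3 or below -3; inactive = the rest.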"}
{"molecular_target": "Metabotropic glutamate receptor 8 (Rattus norvegicus) (UniProt P70579)", "sequence (P70579 whole entry, looked up)": "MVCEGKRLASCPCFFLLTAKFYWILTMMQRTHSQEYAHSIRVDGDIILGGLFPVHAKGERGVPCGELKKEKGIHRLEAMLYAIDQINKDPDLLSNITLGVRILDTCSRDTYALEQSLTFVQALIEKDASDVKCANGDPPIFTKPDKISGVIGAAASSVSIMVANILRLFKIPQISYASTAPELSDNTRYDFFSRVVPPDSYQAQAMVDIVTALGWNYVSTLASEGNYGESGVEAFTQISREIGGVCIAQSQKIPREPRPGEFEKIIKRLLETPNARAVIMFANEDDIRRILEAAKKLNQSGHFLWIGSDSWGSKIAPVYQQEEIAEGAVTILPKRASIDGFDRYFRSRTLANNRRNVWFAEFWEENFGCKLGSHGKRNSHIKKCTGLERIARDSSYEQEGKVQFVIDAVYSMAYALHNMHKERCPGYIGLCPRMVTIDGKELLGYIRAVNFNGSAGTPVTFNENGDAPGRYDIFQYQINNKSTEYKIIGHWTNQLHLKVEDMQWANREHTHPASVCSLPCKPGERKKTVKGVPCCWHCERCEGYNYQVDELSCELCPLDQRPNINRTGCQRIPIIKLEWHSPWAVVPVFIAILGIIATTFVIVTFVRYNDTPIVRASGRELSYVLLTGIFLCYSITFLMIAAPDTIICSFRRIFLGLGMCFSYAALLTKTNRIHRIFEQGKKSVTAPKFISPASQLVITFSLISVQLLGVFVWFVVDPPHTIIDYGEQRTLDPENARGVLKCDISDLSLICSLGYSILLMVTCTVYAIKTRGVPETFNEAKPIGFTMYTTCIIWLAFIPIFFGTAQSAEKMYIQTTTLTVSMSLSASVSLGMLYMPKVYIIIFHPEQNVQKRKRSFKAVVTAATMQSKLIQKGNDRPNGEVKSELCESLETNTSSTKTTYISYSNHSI", "assay": "rat mGluR8 modulators via GIRK flux, primary screen, cell-based, thallium flux, HTS (AID 488969)", "details": "HEK293 rat mGluR8, GIRK (G protein-gated inwardly rectifying potassium channel) thallium flux, FluoZin2; at 10 µM; stronger effect = higher value; submaximal glutamate (EC20) added with thallium"}
{"smiles": "CC(=O)NC(CCS(C)(=O)=O)C(=O)N1CCc2ccccc21", "note": "(stereo not drawn)", "z-score": -0.105}
{"smiles": "CC(/C=N\\Nc1nnc2c(n1)[nH]c1c(C)cccc12)=C\\c1ccco1", "z-score": 0.162}
{"smiles": "O=C(NC1CCCCCC1)C1CCCN1S(=O)(=O)c1cccc2cccnc12", "note": "(stereo not drawn)", "z-score": -0.0831}
{"smiles": "Cc1cccc(-c2nnc(SCCC(=O)N3CCOCC3)o2)c1", "z-score": -0.242}
{"smiles": "CN(NC(=O)Nc1ccc(Cl)cc1)c1ncc(C(F)(F)F)cc1Cl", "z-score": 0.137}
{"smiles": "COc1ccc2c(c1)-c1nc(/N=C/c3ccc(O)c(OC)c3)sc1CC2", "z-score": -0.06}
{"smiles": "COc1ccc(OCC(=O)Nc2ccccc2O)cc1", "z-score": -0.431}
{"smiles": "O=C(CSc1ncn[nH]1)Nc1ccc([N+](=O)[O-])cc1Br", "z-score": -0.12}
{"smiles": "Cc1cc(C)n2cc(CSCC(=O)O)nc2n1", "z-score": 1.46}
{"smiles": "O=C(/C=C/Sc1ncn[nH]1)c1ccc(Cl)cc1", "z-score": -0.225}
{"smiles": "CCCC(c1nnnn1CCOC)N1CCN(Cc2ccccc2)CC1", "note": "(stereo not drawn)", "z-score": -0.131}
{"smiles": "O=C(Nc1ccc2oc(-c3ccccc3)nc2c1)C1CCCO1", "note": "(stereo not drawn)", "z-score": -0.123}
{"smiles": "CCOc1cc2[nH]c(=S)n(CCN3CCCCC3CC)c(=O)c2cc1OCC", "note": "(stereo not drawn)", "z-score": 1.73}
{"smiles": "CCOC(=O)C1=C(CN2CCc3ccccc32)NC(=O)NC1c1cc(C)ccc1C", "note": "(stereo not drawn)", "z-score": -0.293}
{"smiles": "N#Cc1ccc(-c2cccnc2)nc1SCc1ccc(Cl)c(Cl)c1", "z-score": 0.141}
{"smiles": "CC(=O)[C@@H]1[C@@H](C(=O)c2ccccc2)[C@]2(C(=O)Nc3ccccc32)[C@H]2C=Cc3cc(F)ccc3N12", "z-score": 0.0653}
{"smiles": "Cc1ccccc1N(CC(N)=O)S(C)(=O)=O", "z-score": 0.313}
{"smiles": "CN(C)c1ccc(/C=[N+](\\[O-])C(C)(C)/C=N/O)cc1", "z-score": 0.552}
{"smiles": "CC(O)CN(Cc1ccc(Cl)cc1)CC(C)O", "note": "(stereo not drawn)", "z-score": 0.226}
{"smiles": "O=C(Nc1cccnc1)C1COc2ccccc2O1", "note": "(stereo not drawn)", "z-score": 0.162}
{"smiles": "Cc1ccc(CSCCNC(=O)c2ccc(Cl)c(S(=O)(=O)N3CCOCC3)c2)cc1", "z-score": -0.283}
{"smiles": "Cc1ccc(C2=NN(S(C)(=O)=O)C(c3cccs3)C2)cc1", "note": "(stereo not drawn)", "z-score": -0.0177}
{"smiles": "CC(OC(=O)c1cc2sccc2n1C)C(=O)NCc1cccs1", "note": "(stereo not drawn)", "z-score": -0.0535}
{"smiles": "CCOC(=O)Cc1cc(-c2ccc(OC)cc2)nc2ccc3ccccc3c12", "z-score": -0.157}
{"smiles": "Cc1cc(C)n(C(=O)c2ccc(S(=O)(=O)N3CCOCC3)cc2)n1", "z-score": 0.602}
{"smiles": "COC(=O)c1ccc(C2C(Oc3ccccc3C)C(=O)N2CCc2ccc(OC)c(OC)c2)cc1", "note": "(stereo not drawn)", "z-score": 0.272}
{"smiles": "CCN1CCCC1CNC(=O)c1ccc(N2CCCC2=O)cc1", "note": "(stereo not drawn)", "z-score": 1.38}
{"smiles": "CCc1nc2cc(C)nn2c2nc3ccccc3n12", "z-score": 0.527}
{"smiles": "Cc1ccc(S(=O)(=O)NNC(=S)NC(=O)c2ccc([N+](=O)[O-])cc2)cc1", "z-score": -0.275}
{"smiles": "Cc1sccc1/C=N/NC(=O)c1cccc2ccccc12", "z-score": -0.0412}
{"smiles": "CCOc1ccc(OCC)c(S(=O)(=O)N2CCC(C)CC2)c1", "z-score": -0.181}
{"smiles": "C/C(=N\\NS(=O)(=O)c1ccc(Cl)cc1)c1ccc(O)cc1", "z-score": -0.123}
{"smiles": "Cc1ccc(N2C(=O)c3ccccc3C2Nc2cccnc2)nc1", "note": "(stereo not drawn)", "z-score": 0.46}
{"smiles": "CCCS(=O)(=O)N1CCCC(C(=O)NCCCN2CCCC2=O)C1", "note": "(stereo not drawn)", "z-score": 0.225}
{"smiles": "Cc1ccccc1NC(=O)CSc1nc(Nc2ccccc2)nc(N2CCOCC2)n1", "z-score": -0.674}
{"smiles": "C=CCn1c(COc2cccc(C)c2C)nnc1SCC(=O)N1CCN(c2ccccc2)CC1", "z-score": -0.133}
{"smiles": "O=C(O)CS(=O)(=O)CC(=O)O", "z-score": -0.0936}
{"smiles": "O=C(O)CCc1nn2c3ccccc3nc2n(CCN2CCCCC2)c1=O", "z-score": 0.263}
{"smiles": "Cc1cc2nc(C)n3c4ccccc4nc3n2n1", "z-score": 0.628}
{"smiles": "CC(C)Cn1c(CN(C)Cc2ccccc2)nc2c1c(=O)n(C)c(=O)n2C", "z-score": -0.14}
{"smiles": "O=C(CSc1nc(-c2ccccc2Cl)ns1)c1ccc(Cl)cc1", "z-score": -0.0923}
{"smiles": "Cc1cc(C)cc(NC(N)=S)c1", "z-score": -0.143}
{"smiles": "O=C(NCCc1ccccc1)C1CCN(S(=O)(=O)c2ccccc2)CC1", "z-score": -0.251}
{"smiles": "Fc1ccc(-c2cc(C(F)(F)F)nc(-n3cncn3)n2)cc1", "z-score": -1.14}
{"smiles": "O=C(NC1CCSC1=O)c1ccc(Oc2ccc(F)cc2)nc1", "note": "(stereo not drawn)", "z-score": -0.0858}
{"smiles": "COc1ccc(Cl)cc1S(=O)(=O)N1CCN=C1C", "z-score": -0.0286}
{"smiles": "CC(C)c1nc2n[nH]c(N)c2c2c1CSC(C)(C)C2", "z-score": -0.296}
{"smiles": "Nc1nc(-c2cccnc2)nn1C(=O)c1ccco1", "z-score": 0.31}
{"smiles": "C=CCOc1ccc(CNc2nccs2)cc1OC", "z-score": -0.371}
{"smiles": "CSc1nnc(C)c(=O)[nH]1", "z-score": -0.102}
{"smiles": "CCCCOc1ccc(NC(=O)CN2CCN(C(=O)OCC)CC2)cc1", "z-score": 0.226}
{"smiles": "CC(Cc1cccs1)NC(=O)Nc1ccc(F)cc1", "note": "(stereo not drawn)", "z-score": -0.297}
{"smiles": "CCCC(O)(c1ccc(Cl)cc1)C(CN1CCOCC1)c1ccccc1", "note": "(stereo not drawn)", "z-score": 0.163}
{"smiles": "O=C(NCC1CCCO1)c1onc(CSc2cccc(Cl)c2)c1C(=O)O", "note": "(stereo not drawn)", "z-score": -0.115}
{"smiles": "Cc1ccccc1NC(=O)CN1CCC(NC(=O)Nc2ccccc2)CC1", "z-score": -0.237}
{"smiles": "Cc1cccc(NC(=O)C(=O)NCCCc2ccccc2)c1", "z-score": -0.319}
{"smiles": "CCOC(=O)C1CCN(Cc2ccccc2C)CC1", "z-score": 0.126}
{"smiles": "O=c1/c(=C/c2cn(-c3ccccc3)nc2-c2ccc(F)cc2)sc2nc3ccccc3n12", "z-score": -0.0226}
{"smiles": "COc1cc(C)ccc1OCCCCOc1ccccc1C(C)=O", "z-score": -0.565}
{"smiles": "COc1ccc(C2c3ccc4ccccc4c3Oc3ncn(CCN4CCOCC4)c(=N)c32)cc1", "note": "(stereo not drawn)", "z-score": "active: 4.1"}
{"smiles": "CCc1ccccc1NC(=O)/C(=C/c1ccco1)c1ccccc1", "z-score": -1.41}
{"smiles": "COc1ccc(-c2nnc(SCC(=O)/C(C#N)=C(\\C)N)o2)cc1", "z-score": 0.47}
{"smiles": "COc1ccc(/C(N)=N/OC(=O)CSc2ccc(C)cc2)cc1", "z-score": 0.344}
{"smiles": "Cn1nc(C(=O)Nc2cccc(C(F)(F)F)c2)ccc1=O", "z-score": -0.12}
{"smiles": "OCCN(CCO)c1ccc(C(c2ccc(Cl)cc2)c2ccc(N(CCO)CCO)cc2Cl)c(Cl)c1", "z-score": 0.134}
{"smiles": "CC(C)CC(C(=O)Nc1oc(-c2ccccc2)c(-c2ccccc2)c1C#N)N1C(=O)c2ccccc2C1=O", "note": "(stereo not drawn)", "z-score": -0.151}
{"smiles": "COc1ccccc1-c1c(C#N)c(N)nc2c1CCc1ccccc1-2", "z-score": -0.139}
{"smiles": "COc1ccc(CC(=O)O/N=C(\\N)Cc2cccc3ccccc23)cc1", "z-score": -0.194}
{"smiles": "Cn1cc(S(=O)(=O)CC(=O)N2CCc3ccccc32)c2ccccc21", "z-score": -0.166}
{"smiles": "Cc1cc2nc3c(c(=O)n2[nH]1)CCCC3", "z-score": -0.219}
{"smiles": "O=c1c2sccc2nc(SCc2cc(=O)n3ccccc3n2)n1-c1ccc(Br)cc1", "z-score": -0.744}
{"smiles": "O=C(NCc1ccccn1)Nc1ccc2c(c1)OCO2", "z-score": 0.29}
{"smiles": "Cc1cc(C)nc(/N=C2\\NC(=O)CC(C(=O)O)N2c2ccc(Cl)cc2)n1", "note": "(stereo not drawn)", "z-score": -0.705}
